Measured values reported in ChEMBL document CHEMBL4888484, “Replenishing the malaria drug discovery pipeline: Screening and hit evaluation of the MMV Hit Generation Library 1 (HGL1) against asexual blood stage Plasmodium falciparum ,using a nano luciferase reporter read-out” (2022).
About 540 (0.36%) of roughly 150,000 compounds showed an effect of 50% or more. This is one part of the list.

test system: Plasmodium falciparum; experiment: Primary screen in NF54 nanoGlo assay, in single point, at 2uM, 72h; a lower Z score goes with more inhibition; format: functional, Erythrocyte; details: timepoint 72 hour

SMILES	% Inhibition [%]	Z score
CN1CCOC[C@H]1C(=O)NC(C)(C)c1cc(C(F)(F)F)on1	-6	0.84
Cc1nnc(-c2ccccc2C(=O)NC2CCC(N3CCC(C)CC3)CC2)o1 (stereo not given)	-13	1.35
COc1cccc(C(=O)NCCN(C2CCOCC2)[C@H]2CCN(S(C)(=O)=O)C2)c1C	-2	0.47
C=CCS(=O)(=O)NC(=O)[C@H](CC)c1ccccc1	-10	1.15
CC1=C[C@@H](CNS(C)(=O)=O)[C@H](C(C)C)C[C@H]1Cc1nc2ccc(F)cc2[nH]1	10	-1.22
CCCn1cnnc1CN(C)CCn1ccc(C)n1	-17	2.91
CC1(C(=O)O)CCN(Cc2ccc3c(c2)CCC3)CC1	2	-0.44
COCc1nc(C)c(C(=O)N(C)[C@@H]2CCC[C@H]2O)s1	-9	1.82
COc1cc(-c2cccc(C(=O)N[C@@H](C)C(F)(F)F)c2)nc(N)n1	9	-1.18
CCN1C(=O)c2cccc3c(NC(=O)c4ccc(S(=O)(=O)N5CC(C)CC(C)C5)cc4)ccc1c23 (stereo not given)	0	0.07
O=C(Cc1ccccc1F)Nc1cc(S(=O)(=O)N2CCOCC2)ccc1N1CCOCC1	-8	1.18
O=C(Nc1cccnc1)[C@H]1CCCN(c2nnc3ccc(C(F)(F)F)cn23)C1	-11	1.24
Cc1cc(Br)c2c(c1)C(O)(N1CCCC(C)C1)C(=O)N2 (stereo not given)	33	-0.79
CC(C)Cc1ccc(CN2CCc3[nH]cnc3[C@H]2c2ccccn2)s1	-12	1.81
COc1ccc(C(C)NCCC(C)O)c(Br)c1 (stereo not given)	5	-0.74
CCc1cnc(CN(C)C(=O)c2nnc(C(C)C)s2)s1	4	-0.38
CCC(COc1ccccc1)NC(=O)C1(F)CCNC1 (stereo not given)	1	-0.11
C[C@H](NCC1CCC1)C(=O)Nc1ccccc1	-9	1.1
Cc1nc(CNC(=O)c2cccc(-c3noc(C4CC4)n3)c2)oc1C	29	-2.91
CCCCCN(CCO)C(=O)COc1ccc(OCC)cc1	2	-0.23
CCc1nc2c(s1)[C@@H](NCCN1C(=O)CNC1=O)CCC2	15	-1.75
CCN(CC)C(=O)CN1CCCN(C(=O)c2ccc(Cl)cn2)CC1	-4	0.49

SMILES	% Inhibition [%]	Z score
CN1CCC(N(CCc2ccccc2)C(=O)c2ccc3c(c2)OCO3)CC1	16	-2.02
Cc1ccc(C)c(OCc2cc(=O)n3cccc(C)c3n2)c1	2	-0.34
CC(C)(C)c1cc(NS(=O)(=O)c2coc3ccccc23)on1	-7	1.04
COc1cc(C(=O)NCc2cccnc2)ccc1OCC(=O)Nc1cccc(C(F)(F)F)c1	3	-0.33
O=C(C1=NN(c2ccccc2)c2ncccc2S1(=O)=O)N1CCOCC1	2	-0.3
CC1CC2CCCCC2N1Cc1nnc(C2CCC2)o1 (stereo not given)	-9	1.51
CCc1nnc(-c2c(C)c(S(=O)(=O)Nc3ccc(F)c(C)c3)c(C)n2CC)o1	1	-0.14
CCOC(=O)N1CCN(C(=O)c2cnc(C3CC3)nc2C)CC1	-15	2.03
COc1ccc(N2C[C@@H](C(=O)N3CCC(C#N)(N4CCCC4)CC3)CC2=O)cc1	-13	1.28
O=C(NCc1ccc2c(c1)OCO2)c1ccc(-c2cccs2)nc1	-9	1.66
Cc1cnc(CNC(=O)[C@@H](C)Cn2cccn2)cn1	-16	1.43
Cn1cccc1CN1CCC[C@H](C(=O)NCC(F)(F)F)C1	0	-0.04
Cc1cc(NC(=O)c2c(C)noc2C)n(C)n1	-10	1.27
CC1(C)C[C@H](NC(=O)N2CC(CC(F)(F)F)C2)CO1	-4	0.36
CCNC(=O)N(Cc1c(C)nn(-c2ccccc2)c1Oc1ccc(Cl)cc1)CC1CC1	0	-0.05
O=C(Nc1ccc(Cl)cc1)c1ccc2c(=O)n3c(nc2c1)CCCC3	-10	1.51
Cc1cc(N(C)Cc2ccccc2)n2nc(-c3ccccc3C)nc2n1	-13	2.33
Cc1cc(Br)c2c(c1)CCCN2C(=O)c1ncoc1C	15	-1.91
Cc1ccc2nc(NC(=O)c3ccc4c(c3)c(C)c(C)n4Cc3ccccc3)sc2c1	-1	0.2
CCN(C(=O)Nc1c(C)cccc1C)C1COC1	-3	0.51
COCCn1ccc2ccn(Cc3ccc(F)cc3)c(=O)c21	-18	1.55
Cc1cc(C(=O)N(Cc2ccc3c(c2)CCO3)C2CCCC2)on1	-4	0.5

SMILES	% Inhibition [%]	Z score
CCOc1ccc(N2C[C@@H](NC(=O)N3CCN(Cc4ccc5c(c4)OCO5)CC3)CC2=O)cc1	18	-2.24
Cc1cnn([C@H]2CCCN(CCNS(=O)(=O)c3ccccc3)C2)c1	-6	0.92
CN1CCN(S(=O)(=O)N2CCN(C(=O)Nc3ccc(C#N)cc3)CC2)CC1	-5	0.81
O[C@H]1CN(Cc2ccccc2C#Cc2ccccc2)CC[C@@H]1N1CCOCC1	0	0
Cc1noc2nc(C3CC3)cc(C(=O)N[C@H]3CCCc4ccccc43)c12	28	-3.12
COc1ccc(OCC(=O)N(C)C)cc1	-6	0.59
CCOC1CC(O)(CNC(=O)Nc2ccncc2C)C1 (stereo not given)	-1	0.15
COc1cccc(-c2cc(-c3cccnc3)nc(N)c2C#N)c1	27	-3.01
COc1nccnc1N(C)Cc1ccc(CN(C)C)cc1	-6	0.83
Cc1ccc([C@H](NC2CCNCC2)c2cccnc2)cc1C	7	-0.96
CCOc1ccc(C[C@@H](CNC(=O)Cc2c[nH]c3c(C)cccc23)C(=O)O)cc1	-9	1.04
N#CCCN(CCC(F)(F)F)C(=O)[C@@H]1COc2ccccc21	-5	0.68
CN(C)C(=O)CCc1cccc(N2Cc3ncccc3C2=O)c1	2	-0.36
O=C(c1ccc(F)c2ccncc12)N(CC1CCCCC1)c1ccccn1	-1	0.14
COc1cc(C)ccc1OCCN1C[C@H](O)[C@@H](F)C1	4	-0.83
CN(C)C(=O)OC[C@H]1CCCCN1C(=O)c1cc(=O)[nH]c(C2CC2)n1	-9	1.51
O=C1NC[C@@H](O)CC12CN(c1ccncc1C(F)(F)F)C2	-3	0.48
CC1c2[nH]c3ccccc3c2C[C@H]2C(=O)N(C3CCCC3)CC(=O)N12 (stereo not given in full)	-7	0.84
O=C(COCc1cc[nH]c(=O)c1)N1CCCCC12CCCCCC2	1	-0.09
CCCCCc1nnc(NC(=O)c2cc(C#N)cn2C)s1	7	-1.24
Cc1cccc(CN2CC[C@@]3(CCCN(C(=O)COc4ccccc4)C3)C2)n1	-3	0.44
Cc1nc(C)c(COc2ccc(OCC(N)=O)cc2)s1	-4	0.61

SMILES	% Inhibition [%]	Z score
CN1CCN(C)C(CNC(=O)N2CCCC(C)(c3ccccc3)C2)C1 (stereo not given)	-10	0.94
C[C@@H](CCc1ccccc1)NC(=O)c1cncn1-c1ccc(-c2ccc(F)c(F)c2)cc1	0	-0.07
CC(=O)N1N=C(c2c(C)nc3ccc(Cl)cc3c2-c2ccccc2)C[C@H]1c1ccc(Cl)cc1Cl	-10	1.89
CC(CO)(CO)NC(=O)c1ccccc1F	-44	5.13
O=C(Nc1ccnc2cccnc12)[C@H]1CCCO1	0	-0.05
COc1ccc(-c2c(C)noc2NC(C)=O)cc1S(=O)(=O)N1CCCCCC1	-6	0.92
CC[C@@H](CO)NCc1c(F)cccc1Cl	-14	2.05
CC(C)(NC(=O)c1ccnc2ccnn12)[C@H](O)C(F)(F)F	-2	0.37
Cc1c(C(C)C)c(=O)n(-c2ccc(S(=O)(=O)Nc3ccc4c(c3)n(C)c(=O)n4C)cc2)n1C	-24	2.76
Cc1ccc(CNC(=O)[C@@H](NC(=O)c2ccc(C)cc2)C(C)C)cc1	-15	1.71
CN1CC[C@@H]2CN(C(=O)C3CCc4ccccc4CC3)C[C@@H]21	-7	1.17
CC(C)(CN1CCN(S(=O)(=O)c2ccc(C(N)=O)o2)CC1)c1ccccc1	-7	0.69
O=C1CO[C@H]2CN(c3ncccn3)C[C@H]2N1c1ccccc1	-1	0.17
O=C1Cc2cc(S(=O)(=O)Nc3cc4c(cc3Cl)OCO4)ccc2N1	-2	0.22
c1[nH]nnc1CCN1CCOC[C@@H]1CC1CCOCC1	5	-1.02
COc1ccccc1CCn1ccnc1-c1ccoc1	-2	0.18
Cn1cc(NC(=O)C[C@H]2CCCc3ccccc32)cc1C(N)=O	4	-0.75
COc1nccc2c(NS(=O)(=O)C[C@H](C)OC)cccc12	-7	1.41
CCN1CC[C@H](CN(C)S(=O)(=O)c2cc(C)sc2C)C1	3	-0.29
